Read-outs that look alike come from different tables or passages of the source. These are yes or no findings as the source states them, for the method shown. Binding seen in cells or lysates may run through a third protein. Some results given as binding are weak or reduced against the parent protein; the word gives no strength. For some assays here: Where a sequence is shown, tags or fusion partners need not be part of it.
T1: OCIAD2_N-EGFP (UniProt Q9D8W7)
T1 sequence: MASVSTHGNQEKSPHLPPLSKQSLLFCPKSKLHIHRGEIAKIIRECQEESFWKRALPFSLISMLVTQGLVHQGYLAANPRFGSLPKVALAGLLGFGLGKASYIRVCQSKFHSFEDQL

Chains of the proteins cited; added tags and fusions are not shown.
UniProt P40763: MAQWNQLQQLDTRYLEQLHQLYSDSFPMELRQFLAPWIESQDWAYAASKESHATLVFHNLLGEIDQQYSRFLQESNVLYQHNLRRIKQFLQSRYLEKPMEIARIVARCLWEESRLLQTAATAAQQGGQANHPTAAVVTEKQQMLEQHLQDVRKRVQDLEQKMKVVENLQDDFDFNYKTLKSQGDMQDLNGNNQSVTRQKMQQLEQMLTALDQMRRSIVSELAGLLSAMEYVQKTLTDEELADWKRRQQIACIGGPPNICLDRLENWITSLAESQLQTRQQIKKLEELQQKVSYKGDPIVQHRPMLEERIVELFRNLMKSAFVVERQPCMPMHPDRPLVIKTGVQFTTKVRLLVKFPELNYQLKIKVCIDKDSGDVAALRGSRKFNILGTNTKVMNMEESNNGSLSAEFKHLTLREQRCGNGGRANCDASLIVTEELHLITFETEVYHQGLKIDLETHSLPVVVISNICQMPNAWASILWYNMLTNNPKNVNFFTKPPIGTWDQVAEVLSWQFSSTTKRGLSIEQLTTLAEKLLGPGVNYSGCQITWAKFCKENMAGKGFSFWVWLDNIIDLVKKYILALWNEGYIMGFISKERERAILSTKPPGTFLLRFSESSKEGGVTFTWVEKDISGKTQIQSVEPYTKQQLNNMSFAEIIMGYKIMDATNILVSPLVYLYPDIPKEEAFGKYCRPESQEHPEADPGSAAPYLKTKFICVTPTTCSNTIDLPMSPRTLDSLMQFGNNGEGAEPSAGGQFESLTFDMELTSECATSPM

T2: OCIAD2_Hph-dsRED (UniProt Q9D8W7)
T2 sequence: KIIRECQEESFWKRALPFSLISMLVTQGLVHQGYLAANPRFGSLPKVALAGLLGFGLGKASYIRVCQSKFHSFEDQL

T3: OCIAD2_C-dsRed (UniProt Q9D8W7)
T3 sequence: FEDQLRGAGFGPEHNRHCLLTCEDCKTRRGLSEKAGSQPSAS

T4: OCIAD2_FL-EGFP (UniProt Q9D8W7)
T4 sequence: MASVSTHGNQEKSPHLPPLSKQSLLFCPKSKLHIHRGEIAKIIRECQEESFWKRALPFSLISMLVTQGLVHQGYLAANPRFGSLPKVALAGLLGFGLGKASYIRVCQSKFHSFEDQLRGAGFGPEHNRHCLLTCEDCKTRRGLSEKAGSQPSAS


How the values were obtained:
Assay in all cases: co-IP; lysates of HEK293 cells expressing tagged OCIAD2 or Asrij constructs, incubated 4 hours with Protein G sepharose beads coated with antibodies, washed, Western blot for the endogenous partner
[1] = molecular target: T1, OCIAD2_N-EGFP
[2] = molecular target: T2, OCIAD2_Hph-dsRED
[3] = molecular target: T3, OCIAD2_C-dsRed
[4] = molecular target: T4, OCIAD2_FL-EGFP
[5] = molecular target: T1, OCIAD2_N-EGFP; remark: listed apart in the source
[6] = molecular target: T2, OCIAD2_Hph-dsRED; remark: listed apart in the source
[7] = molecular target: T3, OCIAD2_C-dsRed; remark: listed apart in the source
[8] = molecular target: T4, OCIAD2_FL-EGFP; remark: listed apart in the source

| binding [1] | binding [2] | binding [3] | binding [4] | binding [5] | binding [6] | binding [7] | binding [8] | Molecule |
| --- | --- | --- | --- | --- | --- | --- | --- | --- |
| binds | binds | no binding | binds |  |  |  |  | STAT3 (from UniProt P40763 1-770) |
|  |  |  |  | binds | binds | no binding | binds | endogenous OCIAD1 (protein, UniProt Q9NX40 1-245) MNGRADFREPNAEVPRPIPHIGPDYIPTEEERRVFAECNDESFWFRSVPLAATSMLITQGLISKGILSSHPKYGSIPKLILACIMGYFAGKLSYVKTCQEKFKKLENSPLGEALRSGQARRSSPPGHYYQKSKYDSSVSGQSSFVTSPAADNIEMLPHYEPIPFSSSMNESAPTGITDHIVQGPDPNLEESPKRKNITYEELRNKNRESYEVSLTQKTDPSVRPMHERVPKKEVKVNKYGDTWDE |

Reference: article PMC5943604
